Results: patent US20240254223A1 (NOVIMMUNE, published 2024)

T1: high affinity trimeric IL-2R (IL-2Rα, IL-2Rβ and IL-2Rγ) on HEK-Blue IL-2 cells (UniProt P01589 22-272; P14784 27-551; P31785 23-369)
T1 sequence (looked up) 1: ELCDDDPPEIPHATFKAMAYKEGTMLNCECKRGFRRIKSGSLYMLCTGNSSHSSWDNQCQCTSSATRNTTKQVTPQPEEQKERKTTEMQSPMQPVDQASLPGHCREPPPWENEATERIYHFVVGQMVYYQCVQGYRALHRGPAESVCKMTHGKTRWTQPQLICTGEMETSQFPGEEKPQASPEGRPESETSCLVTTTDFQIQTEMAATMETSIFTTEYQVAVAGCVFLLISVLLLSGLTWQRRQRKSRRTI
T1 sequence (looked up) 2: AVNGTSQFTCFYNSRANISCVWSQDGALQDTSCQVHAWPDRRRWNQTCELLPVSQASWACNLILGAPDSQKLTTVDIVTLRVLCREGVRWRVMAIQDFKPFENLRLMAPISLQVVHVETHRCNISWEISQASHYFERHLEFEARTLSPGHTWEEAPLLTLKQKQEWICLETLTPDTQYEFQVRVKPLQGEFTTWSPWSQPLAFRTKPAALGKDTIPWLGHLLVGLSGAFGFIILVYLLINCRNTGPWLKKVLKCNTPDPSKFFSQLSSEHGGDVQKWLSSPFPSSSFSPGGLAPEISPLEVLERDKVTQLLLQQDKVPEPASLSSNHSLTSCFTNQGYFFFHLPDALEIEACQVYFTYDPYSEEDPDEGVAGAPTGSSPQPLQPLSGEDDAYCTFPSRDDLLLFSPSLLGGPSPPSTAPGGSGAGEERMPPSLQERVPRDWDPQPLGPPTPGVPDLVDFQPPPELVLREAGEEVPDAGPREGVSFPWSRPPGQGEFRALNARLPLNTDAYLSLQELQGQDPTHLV
T1 sequence (looked up) 3: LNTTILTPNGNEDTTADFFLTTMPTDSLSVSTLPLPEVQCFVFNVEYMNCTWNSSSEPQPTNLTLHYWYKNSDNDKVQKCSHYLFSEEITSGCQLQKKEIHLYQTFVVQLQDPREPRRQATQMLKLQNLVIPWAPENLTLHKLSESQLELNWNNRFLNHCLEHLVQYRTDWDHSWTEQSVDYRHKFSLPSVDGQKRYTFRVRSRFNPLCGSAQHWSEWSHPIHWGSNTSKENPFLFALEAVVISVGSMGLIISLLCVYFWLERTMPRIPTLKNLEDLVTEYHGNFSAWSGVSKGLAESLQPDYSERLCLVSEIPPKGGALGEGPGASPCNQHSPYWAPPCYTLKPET

T2: low-moderate affinity dimeric IL-2R (IL-2Rβ and IL-2Rγ) on HEK-Blue CD122/CD132 cells (UniProt P14784 27-551; P31785 23-369, limits assumed)
T2 sequence (looked up) 1: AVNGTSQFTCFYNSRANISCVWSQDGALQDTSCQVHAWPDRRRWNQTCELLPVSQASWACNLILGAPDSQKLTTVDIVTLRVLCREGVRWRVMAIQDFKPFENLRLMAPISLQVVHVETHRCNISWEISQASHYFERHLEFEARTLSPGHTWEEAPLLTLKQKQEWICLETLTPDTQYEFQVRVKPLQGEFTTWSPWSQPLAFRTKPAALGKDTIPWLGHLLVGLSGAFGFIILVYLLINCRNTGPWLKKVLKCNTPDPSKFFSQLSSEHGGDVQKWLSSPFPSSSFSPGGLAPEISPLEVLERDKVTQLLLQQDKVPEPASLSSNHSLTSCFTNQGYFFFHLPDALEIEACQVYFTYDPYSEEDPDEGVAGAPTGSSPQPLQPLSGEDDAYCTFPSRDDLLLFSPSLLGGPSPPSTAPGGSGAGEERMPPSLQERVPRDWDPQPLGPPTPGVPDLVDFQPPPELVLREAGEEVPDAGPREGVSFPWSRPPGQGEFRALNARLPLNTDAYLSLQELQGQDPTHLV
T2 sequence (looked up) 2: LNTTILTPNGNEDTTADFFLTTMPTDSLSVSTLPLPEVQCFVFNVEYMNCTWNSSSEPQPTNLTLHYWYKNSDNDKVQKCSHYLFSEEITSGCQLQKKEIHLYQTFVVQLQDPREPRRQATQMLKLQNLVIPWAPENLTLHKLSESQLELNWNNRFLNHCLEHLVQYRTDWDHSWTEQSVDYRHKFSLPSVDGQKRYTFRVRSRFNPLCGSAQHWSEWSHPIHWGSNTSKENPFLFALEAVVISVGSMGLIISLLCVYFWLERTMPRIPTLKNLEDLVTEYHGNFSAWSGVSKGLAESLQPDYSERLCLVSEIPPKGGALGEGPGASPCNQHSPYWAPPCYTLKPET


Key:
[1] = molecular target: T3, CD47 at the surface of Peak cells (human, UniProt Q08722); assay: flow cytometry, Peak cells; EC50 before / EC50 after cleavage
T3 construct: whole, on cells; also called cell surface CD47

[2] = molecular target: T4, His-tagged human CD47 (human, UniProt Q08722 in part, limits assumed); assay: BLI, His-CD47 on HIS1K sensor, antibody 15 µg/mL
T4 construct: loaded on HIS1K biosensors at 2.5 µg/mL; also called target antigen; not shown: His tag

[3] = molecular target: T1, high affinity trimeric IL-2R (IL-2Rα, …); assay: cell-based or functional assay
[4] = molecular target: T2, low-moderate affinity dimeric IL-2R …; assay: cell-based or functional assay
[5] = molecular target: T3, CD47 at the surface of Peak cells; assay: flow cytometry, Peak cells, before cleavage
[6] = molecular target: T3, CD47 at the surface of Peak cells; assay: flow cytometry, Peak cells, after MMP-9 treatment (non-cleavable control)
Description: Binding activity of antibody-cytokine/receptor fusions before and after cleavage was also evaluated by flow cytometry. Peak cells derived from HEK 293 which are human cells expressing CD47 were used to evaluate masking efficacy and binding recovery to CD47 by flow cytometry. Peak cells were diluted in cold FACS buffer (PBS, 2% BSA) to 1.2×10⁶ cells/mL. 3×10⁵ cells/well were added in a 96 well V-bottom plate. The plate was then centrifugated for 5 min at 1300 rpm, 4° C. Supernatants were removed and cells were washed twice using FACS buffer. A serial dilution of antibody-cytokine/receptor fusions previously digested with MMP-9 or not digested as described above was prepared in FACS buffer. An irrelevant antibody was included. Then, 150 μL of each diluted antibody were added in corresponding well and incubated for 30 min at 4° C. Cells were washed twice with FACS buffer and 100 μL of a mouse anti human Fc-PE conjugated secondary antibody were added and the plate was incubated for 20 min at 4° C. Cells were then washed twice with FACS buffer. Finally, 150 μL of SYTOX blue dead cell stain (ThermoFisher) diluted to 1/5000 in FACS buffer were added before detection by flow cytometry with Cytoflex (Beckman Coulter). Acquisition was performed with 10000 events for each well. Data were analyzed by FlowJo software.

Row | Binder | Binding recovery (BC/AC) [1] | Binding before cleavage (BLI) [2] | EC50 before cleavage IL-2, HEK Blue IL-2 αβγ reporter assay [3] | EC50 ratio (BC/AC), HEK Blue IL-2 αβγ reporter assay [3] | EC50 before cleavage IL-2, HEK Blue IL-2 βγ reporter assay [4] | EC50 ratio (BC/AC), HEK Blue IL-2 βγ reporter assay [4] | EC50 [5] | EC50 after cleavage IL-2, HEK Blue IL-2 αβγ reporter assay (non-cleavable control after MMP-9 treatment) [3] | EC50 [6]
1 | pNOVI V2K K91_E8 NO LIN_IL-2Rα_1_238_IL-2_21_153_CM1 VKCK IL-2Rβ_1_239_CM1_VHCH (antibody, human IgG1, kappa, control without cleavable linker; also called n900; construct No 900) light: ELCDDDPPEIPHATFKAMAYKEGTMLNCECKRGFRRIKSGSLYMLCTGNSSHSSWDNQCQCTSSATRNTTKQVTPQPEEQKERKTTEMQSPMQPVDQASLPGHCREPPPWENEATERIYHFVVGQMVYYQCVQGYRALHRGPAESVCKMTHGKTRWTQPQLICTGEMETSQFPGEEKPQASPEGRPESETSCLVTTTDFQIQTEMAATMETSIFTTEGGGGSVHMGS[about 150 residues left out]GGGGSGGGGSGGGGSGGSDIQMTQSPSSLSASVGDRVTITCNVDQVIANWLNWYQQKPGKAPKLLIYAASSLQSGVPSRFSGSGSGTDFTLTISSLQPEDFATYYCQQMHPRAPKQFGQGTKVEIKRTVAAPSVFIFPPSDEQLKSGTASVVCLLNNFYPREAKVQWKVDNALQSGNSQESVTEQDSKDSTYSLSSTLTLSKADYEKHKVYACEVTHQGLSSPVTKSFNRGEC heavy: AVNGTSQFTCFYNSRANISCVWSQDGALQDTSCQVHAWPDRRRWNQTCELLPVSQASWACNLILGAPDSQKLTTVDIVTLRVLCREGVRWRVMAIQDFKPFENLRLMAPISLQVVHVETHRCNISWEISQASHYFERHLEFEARTLSPGHTWEEAPLLTLKQKQEWICLETLTPDTQYEFQVRVKPLQGEFTTWSPWSQPLAFRTKPAALGKDGGGGSGGGGSGGGGSGGS[about 120 residues left out][about 100 residues left out][human IgG1 Fc left out] | 1 | 0.5 nm | 0.28 nM | 3 | – | – | 55.3 nM | 0.08 nM | 47 nM
2 | pNOVI V2K K91_E6 NO LIN_IL-2Rα_1_238_CM1_IL-2_21_153_CM1 VKCK IL-2Rβ_1_239_CM1_VHCH (antibody, human IgG1, kappa, control without cleavable linker; also called n860; construct No 860) light: ELCDDDPPEIPHATFKAMAYKEGTMLNCECKRGFRRIKSGSLYMLCTGNSSHSSWDNQCQCTSSATRNTTKQVTPQPEEQKERKTTEMQSPMQPVDQASLPGHCREPPPWENEATERIYHFVVGQMVYYQCVQGYRALHRGPAESVCKMTHGKTRWTQPQLICTGEMETSQFPGEEKPQASPEGRPESETSCLVTTTDFQIQTEMAATMETSIFTTEGGGGSVHMGGSGGGGSGGGGS[about 150 residues left out]GGGGSGGGGSGGGGSGGSDIQMTQSPSSLSASVGDRVTITCNVDQVIANWLNWYQQKPGKAPKLLIYAASSLQSGVPSRFSGSGSGTDFTLTISSLQPEDFATYYCQQMHPRAPKQFGQGTKVEIKRTVAAPSVFIFPPSDEQLKSGTASVVCLLNNFYPREAKVQWKVDNALQSGNSQESVTEQDSKDSTYSLSSTLTLSKADYEKHKVYACEVTHQGLSSPVTKSFNRGEC heavy: AVNGTSQFTCFYNSRANISCVWSQDGALQDTSCQVHAWPDRRRWNQTCELLPVSQASWACNLILGAPDSQKLTTVDIVTLRVLCREGVRWRVMAIQDFKPFENLRLMAPISLQVVHVETHRCNISWEISQASHYFERHLEFEARTLSPGHTWEEAPLLTLKQKQEWICLETLTPDTQYEFQVRVKPLQGEFTTWSPWSQPLAFRTKPAALGKDGGGGSGGGGSGGGGSGGS[about 120 residues left out][about 100 residues left out][human IgG1 Fc left out] | 1 | 0.5 nm | 0.25 nM | 2 | – | – | 22.5 nM | 0.11 nM | 20.7 nM

Second part, the binder after the results:

Row | Binding recovery (BC/AC) [1] | Binding before cleavage (BLI) [2] | EC50 before cleavage IL-2, HEK Blue IL-2 αβγ reporter assay [3] | EC50 ratio (BC/AC), HEK Blue IL-2 αβγ reporter assay [3] | EC50 before cleavage IL-2, HEK Blue IL-2 βγ reporter assay [4] | EC50 ratio (BC/AC), HEK Blue IL-2 βγ reporter assay [4] | EC50 [5] | EC50 after cleavage IL-2, HEK Blue IL-2 αβγ reporter assay (non-cleavable control after MMP-9 treatment) [3] | EC50 [6] | Binder
3 | 31 | 0.9 nm | 0.07 nM | 4 | 0.04 nM | 3 | 5.5 nM | – | – | pNOVI V2K K91_IL-2 CM1_VKCK_IL-2Rα_CM1_VHCH (antibody, human IgG1, kappa, masked K91 fusion, uncleaved; also called n41; construct No 41) light: [about 150 residues left out]GGGGSVHMPLGFLGPGGSDIQMTQSPSSLSASVGDRVTITCNVDQVIANWLNWYQQKPGKAPKLLIYAASSLQSGVPSRFSGSGSGTDFTLTISSLQPEDFATYYCQQMHPRAPKQFGQGTKVEIKRTVAAPSVFIFPPSDEQLKSGTASVVCLLNNFYPREAKVQWKVDNALQSGNSQESVTEQDSKDSTYSLSSTLTLSKADYEKHKVYACEVTHQGLSSPVTKSFNRGEC heavy: ELCDDDPPEIPHATFKAMAYKEGTMLNCECKRGFRRIKSGSLYMLCTGNSSHSSWDNQCQCTSSATRNTTKQVTPQPEEQKERKTTEMQSPMQPVDQASLPGHCREPPPWENEATERIYHFVVGQMVYYQCVQGYRALHRGPAESVCKMTHGKTRWTQPQLICTGEMETSQFPGEEKPQASPEGRPESETSCLVTTTDFQIQTEMAATMETSIFTTEGGGGSVHMPLGFLGPGGS[about 120 residues left out][about 100 residues left out][human IgG1 Fc left out]
4 | 57 | 0.6 nm | 0.28 nM | 6 | 0.18 nM | 6 | 56.7 nM | – | – | pNOVI V2K K91_E8_IL-2Rα_1_238_IL-2_21_153_CM1 VKCK IL-2Rβ_1_239_CM1_VHCH (antibody, human IgG1, kappa, masked K91 fusion, uncleaved; also called n676; construct No 676) light: ELCDDDPPEIPHATFKAMAYKEGTMLNCECKRGFRRIKSGSLYMLCTGNSSHSSWDNQCQCTSSATRNTTKQVTPQPEEQKERKTTEMQSPMQPVDQASLPGHCREPPPWENEATERIYHFVVGQMVYYQCVQGYRALHRGPAESVCKMTHGKTRWTQPQLICTGEMETSQFPGEEKPQASPEGRPESETSCLVTTTDFQIQTEMAATMETSIFTTEGGGGSGGGGS[about 150 residues left out]GGGGSVHMPLGFLGPGGSDIQMTQSPSSLSASVGDRVTITCNVDQVIANWLNWYQQKPGKAPKLLIYAASSLQSGVPSRFSGSGSGTDFTLTISSLQPEDFATYYCQQMHPRAPKQFGQGTKVEIKRTVAAPSVFIFPPSDEQLKSGTASVVCLLNNFYPREAKVQWKVDNALQSGNSQESVTEQDSKDSTYSLSSTLTLSKADYEKHKVYACEVTHQGLSSPVTKSFNRGEC heavy: AVNGTSQFTCFYNSRANISCVWSQDGALQDTSCQVHAWPDRRRWNQTCELLPVSQASWACNLILGAPDSQKLTTVDIVTLRVLCREGVRWRVMAIQDFKPFENLRLMAPISLQVVHVETHRCNISWEISQASHYFERHLEFEARTLSPGHTWEEAPLLTLKQKQEWICLETLTPDTQYEFQVRVKPLQGEFTTWSPWSQPLAFRTKPAALGKDGGGGSVHMPLGFLGPGGS[about 120 residues left out][about 100 residues left out][human IgG1 Fc left out]
